Data reported in PubChem BioAssay AID445 (National Center for Advancing Translational Sciences (NCATS), 2006).
In all, about 110,000 compounds went through this assay and about 40 (0.04%) were called active. The shares of active, inactive and inconclusive entries below differ from those in the screen. Calls come from the whole dose curve; as a rule, active = well fitted curve in the direction sought with a large enough effect in the signal ratio (not every such curve was filed as active); inconclusive = small, poorly fitted or top-dose-only effect, or a change in a side signal; inactive = flat fitted curve, though single readings scatter; the % refers to the signal ratio. Potencies of inconclusive entries are doubtful fits and often do not repeat.

test: IkB Signaling; conditions: ABC-DLBCL IkBa-CBG/CBR dual luciferase ratio (green luciferase fused to IkBa over red control in OCI-Ly3 lymphoma cells), 4 h; IkBa stabilization activation: at 57.1 µM (top of the series), scaled: untreated 0%, proteasome inhibitor 100% unless noted;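 for IkBa stabilization activation: 0% = basal untreated cells and 100% = reference inhibitor full response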
Outline: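 Luminescence ratio of IκBα-fused green versus native red beetle luciferase in OCI-Ly3 cells, 4 h post-doxycycline with compound; red signal alone, scaled from basal (0%) to zero light (-100%), flagged nonspecific or cytotoxic effects.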
Potency is the fitted concentration of half-maximal effect.

| Structure (SMILES) | IkBa stabilization activation | Potency |
| --- | --- | --- |
| CCc1c(C)c2cc3c(c(C)c2oc1=O)OCN(CCc1ccc(OC)c(OC)c1)C3 | inconclusive: 1.52% [signal inhibitor] | – |
| COc1ccc(N2CCN(C(=O)c3ccc(NS(=O)(=O)c4ccc(F)cc4)cc3)CC2)cc1 | inconclusive: 2.04% [signal inhibitor] | – |
| COC(=O)C1=CN(C(C)C)C=C(C(=O)OC)C1c1cc2c(cc1Br)OCO2 | inconclusive: 13.1% [signal inhibitor] | – |
| CCOC(=O)c1c(-c2ccc(OC)c(OC)c2)csc1NC(=O)c1ccccc1F | inactive: -0.508% | – |
| COc1ccc2c(c1)c1c(c(=O)n(-c3cccc(C)c3)c(=O)n1CC(=O)NCCC1=CCCCC1)n2C | inconclusive: 12.7% [signal inhibitor] | – |
| COc1ccccc1Nc1nc(-c2ccccc2)c(CC(=O)O)s1 | inconclusive: 5.02% [signal inhibitor] | – |
| Cc1ccc2nc3c(cc(C(=O)NC4CCCC4)c(=N)n3C(C)C)c(=O)n2c1 | inactive: -1.92% | – |
| O=c1oc2c(CN3CCCCCC3)c(O)ccc2cc1-c1nc2ccccc2[nH]1 | inconclusive: 0.811% [signal inhibitor] | – |
| COc1ccc(CNC(=O)C(C#N)c2nc3ccccc3nc2N2CCN(C)CC2)cc1 (configuration not stated) | inactive: -0.91% | – |
| O=c1c2cccnc2n(Cc2cccc(F)c2)c(=O)n1Cc1ccc(F)cc1 | inconclusive: -0.567% [signal inhibitor] | – |
| Cc1ccccc1OCC(=O)Nc1ccc2nc(SCC(=O)N3CCCC3)sc2c1 | inconclusive: 2.42% [signal inhibitor] | – |
| O=C(NC1CCN(C(=O)Nc2ccccc2)CC1)C1CCCCC1 | inactive: 0.859% | – |
| CC(C)c1cc(C(N)=O)c(NC(=O)C2CCC2)s1 | inactive: -5.75% | – |
| O=C1Cc2cc(S(=O)(=O)Nc3ccc(OC(F)(F)F)cc3)cc3c2N1CCC3 | inactive: 6.23% | – |
| Cc1ccc(-c2nc(NC(=O)CSc3nnc4scc(-c5ccccc5)n34)ns2)cc1 | inconclusive: 8.1% [signal inhibitor] | – |
| COc1ccc(S(=O)(=O)c2nnn(-c3cccc(Cl)c3)c2N)cc1 | inconclusive: -0.00821% [signal inhibitor] | – |
| CCOC(=O)c1cc(-c2ccc(OC)c(S(=O)(=O)N3CCN(c4ccccc4)CC3)c2)on1 | inconclusive: 9.42% [signal inhibitor] | – |
| O=C(Nc1nc2ccccc2[nH]1)c1ccc(F)cc1 | – | inconclusive: 7.94 µM [signal inhibitor, partial curve] |
| CCN(c1ccccc1)S(=O)(=O)c1ccc(NC(=O)c2nc(S(C)(=O)=O)ncc2Cl)cc1 | inactive: -2.08% | – |
| CC(NC(=O)c1cc2ccccc2o1)c1cccs1 (configuration not stated) | inconclusive: 12.2% [signal inhibitor] | – |
| CCc1ccc(C(=O)COC(=O)C(NC(=O)C2CCC(C)CC2)C(C)C)cc1 (configuration not stated) | – | inconclusive: 7.94 µM [signal inhibitor, full curve] |
| O=c1cc(CSc2nnc(COc3ccc(Cl)cc3)o2)c2ccccc2[nH]1 | inactive: 1.67% | – |
| O=C(CSc1nc2scc(-c3ccco3)c2c(=O)n1-c1ccccc1)NCC1CCCO1 (configuration not stated) | – | active: 7.94 µM |

| Structure (SMILES) | IkBa stabilization activation | Potency |
| --- | --- | --- |
| Cc1ccc(C(=O)CSc2nnc(CNc3ccc(C)cc3C)n2Cc2ccco2)cc1 | inconclusive: 4.95% [signal inhibitor] | – |
| O=C(Nc1cccc(-c2nc3ccccc3[nH]2)c1)c1ccco1 | inactive: 0.787% | – |
| CCn1c2c(c(=O)n3ncc(C(=O)N4CCN(c5ccc(Cl)cc5)CC4)c13)CN(Cc1ccc(OC)cc1)CC2 | inconclusive: 4.95% [signal inhibitor] | – |
| COC(=O)c1cc2oc3ccccc3c2n1Cc1ccc(Cl)cc1 | inactive: -0.082% | – |
| CCOC(=O)c1[nH]c(C)c(CCC(=O)NCc2ccc(CC)cc2)c1C | inconclusive: 0.261% [signal inhibitor] | – |
| COc1ccc(Nc2cc(C(=O)NCCCN3CCN(c4ccccc4F)CC3)c3ccccc3n2)c(OC)c1 | inconclusive: 0.0875% [signal inhibitor] | – |
| COc1cccc(CN2c3ccccc3-c3nc(SCC(=O)Nc4ccccc4Cl)ncc3S2(=O)=O)c1 | inactive: -1.97% | – |
| O=C1CSC2(C(=O)N(Cc3cccc(F)c3)c3ccccc32)N1c1cccc(C(F)(F)F)c1 (configuration not stated) | inconclusive: 2% [signal inhibitor] | – |
| CCOC(=O)Cc1csc(NC(=O)CCc2ccc(S(=O)(=O)N3CCOCC3)cc2)n1 | inconclusive: 1.99% [signal inhibitor] | – |
| COc1ccc(NC(=O)c2ccc3nc(C(C)C)oc3c2)cc1OC | inconclusive: 3.38% [signal inhibitor] | – |
| Cc1ccc(Cn2c(CO)cnc2SCC(=O)Nc2ccc(C)c(Cl)c2)cc1 | – | inconclusive: 25.1 µM [signal inhibitor] |
| CN1C(=O)c2ccccc2Sc2ccc(NC(=O)c3ccc(C(F)(F)F)cc3)cc21 | inconclusive: 0.107% [signal inhibitor] | – |
| N#Cc1ccccc1NS(=O)(=O)c1ccc(N2CCCCS2(=O)=O)cc1 | inconclusive: -2.06% [signal inhibitor] | – |
| CCCc1nn2c(=O)cc(COC(=O)c3ccc(NC(=O)COc4ccccc4)cc3)nc2s1 | inconclusive: -1.53% [signal inhibitor] | – |
| CCN(CC)C(=O)c1sc2c(c1C)c(=O)n(CCc1ccccc1)c(=O)n2Cc1cc(C)ccc1C | inconclusive: 2.35% [signal inhibitor] | – |
| Cn1c(-c2ccc3c(c2)OCO3)cnc1N | inactive: 0.0116% | – |
| COc1cccc(N2CCN(C(=O)c3cc4c(s3)-c3ccccc3OC4)CC2)c1 | inconclusive: 9.48% [signal inhibitor] | – |
| O=C(CCSc1ccc(F)cc1)Nc1ccc(-n2cnnn2)cc1 | inconclusive: 1.76% [signal inhibitor] | – |
| O=C(NCCc1ccc(Cl)cc1)c1ccc(CS(=O)(=O)c2ccc(Cl)cc2)o1 | inconclusive: 6.45% [signal inhibitor] | – |
| CC(C)Cn1c(-c2cccs2)nc2nc3ccccc3nc21 | inactive: -0.00157% | – |
| Cc1nnc(SCC(=O)Nc2nsc(-c3ccccc3)n2)s1 | inactive: 1.56% | – |
| CC(C)(C)c1ccc(Cn2nnc3c(=O)[nH]c(C4CCN(C(=O)Cc5cccs5)CC4)nc32)cc1 | inconclusive: 3.76% [signal inhibitor] | – |
| Cc1ccc2cc(CN(Cc3ccccc3)Cc3nnnn3C3CCCC3)c(=O)[nH]c2c1 | – | inconclusive: 25.1 µM [signal inhibitor, partial curve] |

| Structure (SMILES) | IkBa stabilization activation | Potency |
| --- | --- | --- |
| COc1ccc(NC(=O)Cn2cc(S(=O)(=O)c3ccccc3)c(=O)c3cc4c(cc32)OCO4)cc1 | inconclusive: -0.644% [signal inhibitor] | – |
| CCCC(=O)OCc1cnc(C)c2oc(=O)c(C(=O)Nc3cccc(C(F)(F)F)c3)cc12 | inconclusive: 9.34% [signal inhibitor] | – |
| Cc1cc(C)c2cc(CN(CCO)C(=O)Nc3ccc(Cl)cc3)c(=O)[nH]c2c1 | inactive: 1.25% | – |
| COc1ccc(N(Cc2cccs2)C(=O)c2ccc(OC)c(Cl)c2)cc1 | inconclusive: 1.71% [signal inhibitor] | – |
| Cc1cccc(N2CCN(C(=O)C3CCN(S(=O)(=O)c4c(C)noc4C)CC3)CC2C)c1 (configuration not stated) | inconclusive: 4.02% [signal inhibitor] | – |
| CCCS(=O)(=O)c1c(S(=O)(=O)CCC)c2cc(C(C)(C)C)ccn2c1C(=O)c1ccccc1 | inconclusive: 9.44% [signal inhibitor] | – |
| Nc1cc(S(N)(=O)=O)ccc1SSc1ccc(S(N)(=O)=O)cc1N | inactive: -1.15% [at 11.4 µM, scaled: untreated 0%, proteasome inhibitor 100%] | – |
| CC(=O)Nc1ccc(NC(=O)c2ccccc2F)cc1 | – | inconclusive: 15.8 µM [signal inhibitor, partial curve] |
| COC(=O)c1ccc(NC(=O)CC2C(=O)N(c3ccccc3)C(=O)N2Cc2ccc(F)cc2)cc1 (configuration not stated) | inconclusive: 0.958% [signal inhibitor] | – |
| COC(=O)[C@H](C)NC(=O)Nc1ccc(Oc2ccccc2)cc1 | inactive: 0.701% | – |
| O=C(c1[nH]o[n+](=O)c1C(=O)c1csc2ccccc12)c1csc2ccccc12 | inactive: 9.18% [at 11.4 µM, scaled: untreated 0%, proteasome inhibitor 100%] | – |
| CC(C)c1noc(-c2ccccc2OCC(=O)Nc2cccc([N+](=O)[O-])c2)n1 | inconclusive: -1.21% [signal inhibitor] | – |
| CC(C)Sc1ncc(Cl)c(C(=O)Nc2ccc(S(=O)(=O)N3CCCCC3)cc2)n1 | inconclusive: 0.515% [signal inhibitor] | – |
| COC(=O)CNc1c(-c2ccccn2)nc2ccc(Br)cn12 | inactive: 16% | – |
| COc1cc(C2CC(=O)Oc3c2c(=O)[nH]c2ccccc32)cc(OC)c1OC (configuration not stated) | inconclusive: 12.2% [signal inhibitor] | – |
| Cc1ccc(-c2cc3nc(-c4ccccc4)cc(C(F)(F)F)n3n2)cc1 | inconclusive: 12.6% [signal inhibitor] | – |
| Cc1ccc(NC(=O)C2CCN(S(=O)(=O)c3cccc4nonc34)CC2)cc1C | inconclusive: -1.18% [signal inhibitor] | – |
| CCNc1ncc2nc(-c3cn(C)c4ccccc34)c(=O)n(-c3ccccc3)c2n1 | – | inconclusive: 3.16 µM [signal inhibitor, partial curve] |
| Cc1c(NC(=O)c2ccc3c(c2)OCO3)cccc1-c1nc2ncccc2o1 | inconclusive: -0.285% [signal inhibitor] | – |
| O=C(Oc1ccccc1F)c1nc(SCc2ccc(F)cc2)ncc1Cl | inconclusive: -0.568% [signal inhibitor] | – |
| Cc1ccc(CN(C(=O)COc2cc(C)c(Cl)c(C)c2)c2ccccn2)o1 | inconclusive: 0.902% [signal inhibitor] | – |
